The other results are listed elsewhere or left out. For some assays here: At the low end of the ranking the order means little. For some assays here: The protein was read in a cell extract, so binding may be indirect.
These sequences were tested against PU.1 (IVT) (UniProt P17947) (assay: protein-binding microarray (PBM)). Conditions: 20 mM HEPES pH 7.9, 100 mM NaCl, 1 mM DTT, 0.2 mg/mL BSA, 0.02% Triton X-100, 2% milk, 0.4 mg/mL salmon testes DNA; 1 h; temperature not stated; high values mean tight binding; double strand, one strand shown; sequences stand for … in GCCTAGCAC…GTGCTAGGTCTTGATTCGCTTGACGCTGCTG.
CAAATGAGGAAGTGGCAGCT was tested, and the binding signal was 7.39 z-score.
For TTTAAAGGGAAGTGAACTAC, the binding signal was 3.8 z-score.
With TAAATGAGGAAGTGACAGCT the binding signal was 7.57 z-score.
With GGGAAGGGGAAGTGGCAGGG the binding signal was 5.39 z-score.
Sequence GCAATGGGGAAGTGGCCATT has a binding signal of 5.45 z-score.
Sequence CGAAAGGGGATGTGCTAAAC has a binding signal of 1.8 z-score.
Sequence GAAAAGAGGAAGTCAAAATA has a binding signal of 8.29 z-score.
With CGGGAGAGGAAGTGACCCAT the binding signal was 4.4 z-score.
For GGTGACAGGAAGTCCTGGGG, the binding signal was 2.33 z-score.
Work on AAAAGAAGGAAGTGTCCAGT yielded a binding signal of 4.96 z-score.
CAAAACAGGAAGTGATTCAT showed a binding signal of 7.82 z-score.
For AAAAACAGGAAGTCCTATTC, the binding signal was 7.91 z-score.
TAAATGAGGAAGTGAAGGCT gave a binding signal of 7.65 z-score.
GAAATGGGGAAGTGCTTCAA showed a binding signal of 7.41 z-score.
In the case of CAAAAAGGGAAGTCGATGCT, the binding signal is reported as 6.3 z-score.
Work on AAAAAACGGAACTGGCTAGA yielded a binding signal of 4.94 z-score.
CGCAAGGGGAAGTGCTAAAC was tested, and the binding signal was 4.55 z-score.
AAAAGGAGGAAGCGGTGAGC was tested, and the binding signal was 3.75 z-score.
In the case of GAAAGGAGGAAGTCAGAGTG, the binding signal is reported as 5.26 z-score.
AATAGGAGGAAGTGGCAAGT gave a binding signal of 4.68 z-score.
AAAATGAGGAAGTCATTCTT showed a binding signal of 8.35 z-score.
ATGGAGAGGAAGTGGCAGAG showed a binding signal of 3.94 z-score.
Work on GGGAACAGGAACTGAGACAT yielded a binding signal of 2.44 z-score.
Sequence CTTGAGAGGAAGTGGGAAAA has a binding signal of 3.43 z-score.
GCTAAGAGGAAGTCCTCTGT gave a binding signal of 5.07 z-score.
For CAGAAAAGGAAGTGGCCCAG, the binding signal was 3.56 z-score.
Sequence TAAAAGAGGAAGAGGAAGAA has a binding signal of 5.75 z-score.
Sequence ACTAGGAGGAAGTGGGAAAC has a binding signal of 4.97 z-score.
For AAAATGAGGAACTGGAACTA, the binding signal was 6.71 z-score.
For TAAAGGAGGAAGTGGCTTAG, the binding signal was 5.97 z-score.
Sequence CAAAAGAGGAACTGCTTTTT has a binding signal of 7.49 z-score.
For GTAAACAGGAAGTCCCATAG, the binding signal was 5.74 z-score.
AGGATGAGGAACTGTTGATG gave a binding signal of 3.53 z-score.
In the case of GCTAAAAGGAAGTGTCAAGT, the binding signal is reported as 2.47 z-score.
In the case of AGTAAAGGGAAGTGAAAAGA, the binding signal is reported as 4.02 z-score.
CAGAGAAGGAAGTGTGGTCT gave a binding signal of 2.76 z-score.
With CAAAAAAGGAAGTGGCTGTG the binding signal was 5.51 z-score.
AAGAAGAGGAAGTGAGTGCT was tested, and the binding signal was 7.09 z-score.
AGTATGGGGAAGTGTTTAGG showed a binding signal of 4.86 z-score.
Sequence ATATTAAGGAAGTGCTGTGG has a binding signal of 4.49 z-score.

Each sequence was assayed against PU.1 (endogenous, THP-1 nuclear extract) (UniProt P17947) (assay: nuclear extract protein-binding microarray (nextPBM)). Conditions: 20 mM HEPES pH 7.9, 100 mM NaCl, 1 mM DTT, 0.2 mg/mL BSA, 0.02% Triton X-100, 2% milk, 0.4 mg/mL salmon testes DNA; 1 h; temperature not stated; high values mean tight binding; double strand, one strand shown; sequences stand for … in GCCTAGCAC…GTGCTAGGTCTTGATTCGCTTGACGCTGCTG.
Work on CAAATGAGGAAGTGGCAGCT yielded a binding signal of 7.04 z-score.
With TTTAAAGGGAAGTGAACTAC the binding signal was 4.2 z-score.
TAAATGAGGAAGTGACAGCT showed a binding signal of 7.12 z-score.
With GGGAAGGGGAAGTGGCAGGG the binding signal was 5.68 z-score.
In the case of GCAATGGGGAAGTGGCCATT, the binding signal is reported as 5.73 z-score.
For CGAAAGGGGATGTGCTAAAC, the binding signal was 2.13 z-score.
With GAAAAGAGGAAGTCAAAATA the binding signal was 7.32 z-score.
Sequence CGGGAGAGGAAGTGACCCAT has a binding signal of 4.61 z-score.
Sequence GGTGACAGGAAGTCCTGGGG has a binding signal of 2.5 z-score.
For AAAAGAAGGAAGTGTCCAGT, the binding signal was 5.34 z-score.
CAAAACAGGAAGTGATTCAT showed a binding signal of 7.36 z-score.
With AAAAACAGGAAGTCCTATTC the binding signal was 7.17 z-score.
Work on TAAATGAGGAAGTGAAGGCT yielded a binding signal of 7.04 z-score.
For GAAATGGGGAAGTGCTTCAA, the binding signal was 7.12 z-score.
In the case of CAAAAAGGGAAGTCGATGCT, the binding signal is reported as 6.39 z-score.
AAAAAACGGAACTGGCTAGA showed a binding signal of 5.12 z-score.
CGCAAGGGGAAGTGCTAAAC showed a binding signal of 4.77 z-score.
With AAAAGGAGGAAGCGGTGAGC the binding signal was 4.12 z-score.
GAAAGGAGGAAGTCAGAGTG was tested, and the binding signal was 6.07 z-score.
With AATAGGAGGAAGTGGCAAGT the binding signal was 5.05 z-score.
Sequence AAAATGAGGAAGTCATTCTT has a binding signal of 7.52 z-score.
In the case of ATGGAGAGGAAGTGGCAGAG, the binding signal is reported as 3.48 z-score.
Sequence GGGAACAGGAACTGAGACAT has a binding signal of 2.61 z-score.
For CTTGAGAGGAAGTGGGAAAA, the binding signal was 3.63 z-score.
GCTAAGAGGAAGTCCTCTGT was tested, and the binding signal was 5.28 z-score.
Work on CAGAAAAGGAAGTGGCCCAG yielded a binding signal of 3.65 z-score.
Work on TAAAAGAGGAAGAGGAAGAA yielded a binding signal of 6.38 z-score.
Work on ACTAGGAGGAAGTGGGAAAC yielded a binding signal of 4.86 z-score.
With AAAATGAGGAACTGGAACTA the binding signal was 6.94 z-score.
In the case of TAAAGGAGGAAGTGGCTTAG, the binding signal is reported as 6.55 z-score.
CAAAAGAGGAACTGCTTTTT was tested, and the binding signal was 7.3 z-score.
GTAAACAGGAAGTCCCATAG was tested, and the binding signal was 6.53 z-score.
AGGATGAGGAACTGTTGATG gave a binding signal of 3.15 z-score.
In the case of GCTAAAAGGAAGTGTCAAGT, the binding signal is reported as 2.33 z-score.
AGTAAAGGGAAGTGAAAAGA was tested, and the binding signal was 4.35 z-score.
CAGAGAAGGAAGTGTGGTCT showed a binding signal of 3.1 z-score.
For CAAAAAAGGAAGTGGCTGTG, the binding signal was 6.1 z-score.
Sequence AAGAAGAGGAAGTGAGTGCT has a binding signal of 6.79 z-score.
AGTATGGGGAAGTGTTTAGG was tested, and the binding signal was 4.91 z-score.
In the case of ATATTAAGGAAGTGCTGTGG, the binding signal is reported as 4.49 z-score.
